Measurements from US5229379A, “Certain N-substituted-amino-alkane phosphinic acid derivatives having anti-epileptic properties” (priority 1990, dated 1993).
At least one read-out could not be matched to a standard name with certainty.

System: "spike and wave" discharges in epileptic rats (male Wistar rats of the Strasbourg colony)
Assay: Inhibition of spike and wave discharges in epileptic rats (absence epilepsy model)
Assay type: in vivo, rat
Settings: mean ± SEM, 6 rats
Excerpt: Synchronous "spike and wave" discharges (SWD; frontopariental cortex; 7-8 Hz; 300-1000 μV, duration 0.5 to 40 s, mean value=6.0±3.4 s) and frequently myoclonia facialis accompany a cessation of behaviour. These absence-like conditions occur spontaneously and repeatedly. […] In contrast, a strain could be reared in which 100% of the rats are SWD-free (control rats). This pharmacological model is described in Vergnes M., Marescaux C., Micheletti G., Reis J., Depaulis A., Rumbach L. and Warter J. M., Neurosci. Lett. 33. 97-101 (1982).
In this model, for example, the clinically used anti-epileptics ethosuximide, diazepam, trimethadione and sodium valproate in doses≥25 mg/kg (ethosuximide),≥0.5 mg/kg (diazepam) and≥50 mg/kg (trimethadione and sodium valproate) reduce the spike and wave discharges in dose-dependent manner. […] Phenobarbital is effective at from 2.5 to 10 mg/kg and is ineffective at 20 mg/kg. The action of these anti-epileptics on the crises in rats and absences in humans supports the hypothesis that this animal model represents a pharmacological model for absence epilepsy. Its predictive value appears to be at least as good as that of other customary animal models.
The action of GABAB -antagonists was tested on male Wistar rats (300-400 g) of the Strasbourg colony. […] The rats received water and food ad libidum, and the light/dark cycle was 12/12 hours. The rats were anaesthetised with pentobarbital (40 mg/kg i.p.) and implanted bilaterally with 4 stainless steel electrodes (two in the frontal cortex and two in the parietal cortex). The rats were used for experiments no sooner than one week after the operation.
The rats, which were freely mobile, were accommodated in a Plexiglass cage (17×17×28 cm) (one rat per cage), and, after a 15-minute period for adaptation to the new surroundings, the EEG was recorded over a period of 20 minutes (reference period). The reference line for the particular test series is thus obtained. A GABAB -antagonist was then administered and the EEG was recorded over a period of from 120 to 180 minutes. The rats were kept under constant observation during this period and prevented from falling asleep by gentle manual contact.
The test compound was dissolved in 0.9% sodium chloride solution and injected in doses of 50, 100, 200 and 400 mg/kg i.p.. Alternatively, the test compound may be administered in a polyethylene glycol, such as Tween® 80, (2 drops/10 ml of suspension of the test compound in 0.9% sodium chloride solution; the suspension is homogenised at 40° for 10 minutes by means of ultrasound, injection volume: 2 ml/kg) i.p. or by means of a stomach probe p.o.. Test compounds that are soluble with difficulty are advantageously administered in solution in a mixture of dimethyl sulfoxide (not more than 10% by volume) and 0.9% sodium chloride solution or in 45% aqueous hydroxypropyl-β-cyclodextrin solution. Each animal is treated with all doses in a randomised sequence. The time between two treatments should be at least 5 days. The mean values ±SEM of the sum total duration of the "spike and wave" discharges of 6 rats over a period of 20 minutes are recorded.
The sum total duration of the spike and wave discharges (in seconds) is measured for each 20-minute period of the EEG recording. Comparisons between the treatment and the reference period are carried out by means of non-parametric variance analysis of the groups concerned (Friedman test). The control group and the treated groups are compared by means of the Wilcoxon test only when a significant difference between the two groups is found in the Friedmann test. The significances of the differences according to Wilcoxon between doses marked by an asteriks and dose 0 corresponds to p<0,005.

[1] = i.p. 100 mg/kg, period 0-20 min
[2] = i.p. 100 mg/kg, period 20-40 min
[3] = i.p. 100 mg/kg, period 40-60 min
[4] = i.p. 100 mg/kg, period 60-80 min
[5] = i.p. 100 mg/kg, period 80-100 min
[6] = i.p. 100 mg/kg, period 100-120 min
[7] = i.p. 200 mg/kg, period 0-20 min
[8] = i.p. 200 mg/kg, period 20-40 min
[9] = i.p. 200 mg/kg, period 40-60 min
[10] = i.p. 200 mg/kg, period 60-80 min
[11] = i.p. 200 mg/kg, period 80-100 min
[12] = i.p. 200 mg/kg, period 100-120 min
[13] = i.p. 400 mg/kg, period 0-20 min
[14] = i.p. 400 mg/kg, period 20-40 min
[15] = i.p. 400 mg/kg, period 40-60 min
[16] = i.p. 400 mg/kg, period 60-80 min
[17] = i.p. 400 mg/kg, period 80-100 min
[18] = i.p. 400 mg/kg, period 100-120 min

Compound	sum total duration of the spike and wave discharges [1]	sum total duration of the spike and wave discharges [2]	sum total duration of the spike and wave discharges [3]	sum total duration of the spike and wave discharges [4]	sum total duration of the spike and wave discharges [5]	sum total duration of the spike and wave discharges [6]	sum total duration of the spike and wave discharges [7]	sum total duration of the spike and wave discharges [8]	sum total duration of the spike and wave discharges [9]	sum total duration of the spike and wave discharges [10]	sum total duration of the spike and wave discharges [11]	sum total duration of the spike and wave discharges [12]	sum total duration of the spike and wave discharges [13]	sum total duration of the spike and wave discharges [14]	sum total duration of the spike and wave discharges [15]	sum total duration of the spike and wave discharges [16]	sum total duration of the spike and wave discharges [17]	sum total duration of the spike and wave discharges [18]	further results
CCOC(OCC)P(=O)(O)CCCNCc1ccc(Cl)c(Cl)c1 [3-(3,4-dichlorbenzylamino)propyl(diethoxymethyl)phosphonic acid]	119 ± 49 s	151 ± 33 s	270 ± 68 s	151 ± 27 s	261 ± 60 s	205 ± 40 s	148 ± 65 s	166 ± 92 s	161 ± 103 s	200 ± 112 s	183 ± 110 s	218 ± 58 s	310 ± 73 s	45 ± 25 s	75 ± 44 s	100 ± 71 s	58 ± 363 s	76 ± 48 s	–
NCCCP(=O)(O)C(O)c1ccccc1 (stereo not drawn) [3-Aminopropyl(1-hydroxybenzyl)phosphinic acid]	235 ± 74 s	222 ± 55 s	88 ± 20 s	167 ± 63 s	130 ± 48 s	95 ± 25 s	187 ± 80 s	78 ± 40 s	44 ± 21 s	12 ± 6 s	20 ± 10 s	15 ± 10 s	49 ± 17 s	16 ± 6 s	1 ± 1 s	0 ± 0 s	9 ± 4 s	7 ± 2 s	–
NCCCP(=O)(O)Cc1ccccc1 [3-Aminopropyl(benzyl)phosphinic acid, 3-aminopropyl(benzyl)phosphinic acid]	186 ± 43 s	39 ± 26 s	39 ± 28 s	52 ± 30 s	36 ± 13 s	27 ± 17 s	12 ± 11 s	2 ± 1 s	1 ± 1 s	2 ± 2 s	2 ± 1 s	0 ± 0 s	7 ± 4 s	0 ± 0 s	0 ± 0 s	0 ± 0 s	0 ± 0 s	0 ± 0 s	sum total duration of the spike and wave discharges (i.p. 50 mg/kg, period 0-20 min): 223 ± 57 s; sum total duration of the spike and wave discharges (i.p. 50 mg/kg, period 20-40 min): 68 ± 30 s; sum total duration of the spike and wave discharges (i.p. 50 mg/kg, period 40-60 min): 114 ± 32 s; sum total duration of the spike and wave discharges (i.p. 50 mg/kg, period 60-80 min): 112 ± 34 s; sum total duration of the spike and wave discharges (i.p. 50 mg/kg, period 80-100 min): 140 ± 43 s; sum total duration of the spike and wave discharges (i.p. 50 mg/kg, period 100-120 min): 162 ± 50 s
NCCCP(=O)(O)CC1CC1 [3-Aminopropyl(cyclopropylmethyl)phosphinic acid]	292 ± 47 s	252 ± 24 s	107 ± 18 s	185 ± 51 s	117 ± 30 s	151 ± 40 s	338 ± 71 s	108 ± 54 s	100 ± 72 s	19 ± 12 s	90 ± 46 s	54 ± 27 s	199 ± 75 s	60 ± 34 s	7 ± 4 s	5 ± 3 s	2 ± 2 s	4 ± 1 s	–
